# Data published in PubChem BioAssay (Tox21).
# Where “and” joins values, the source holds several entries; their conditions need not be identical. Equal entries are not always repeated. This list was built around the results that the source calls inconclusive (neither active nor inactive); the mix of calls is not that of the screen. No potency is given beside an inconclusive call; the fits are too rough. Where a structure was tested more than once in an assay, its records may differ in their call. Calls of active or inactive are those of the source. Calls come from the whole dose curve; as a rule, active = well fitted curve in the direction sought with a large enough effect in the repeat runs; inconclusive = weak or mixed curves; inactive = no such curve, though single readings can be large; an effect the other way counts as inactive or inconclusive.
# Legend:
# [1] = qHTS RealTime-Glo MT Cell Viability Assay in HEK293 cells - 16 hour (AID 1224872); note: nearly all actives have a fitted effect of over 50% in size
# Outline: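 Cells + reagent dispensed (600 cells/well, HEK293) → 5 h at 37 C/5% CO2 → 23 nL compound in DMSO pinned → 40 h at 37 C → luminescence read at 0, 8, 16, 24, 32, 40 h.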
# [2] = qHTS RealTime-Glo MT Cell Viability Assay in HEK293 cells - 40 hour (AID 1224874); details: RealTime-Glo luminescence; max response: stronger effect = lower value; note: nearly all actives have a fitted effect of over 50% in size
# Outline: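 HEK293 cells mixed with RealTime-Glo reagents (NanoLuc plus cell-permeant prosubstrate) at 600 cells/well, preincubated 5 h at 37 C/5% CO2, then given 23 nL compound in DMSO. Nonlytic luminescence from viable cells was read at 0, 8, 16, 24, 32 and 40 h.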
# [3] = A CellTox Green Cytotoxicity Assay to monitor cytotoxicity in HepG2 cells - 40 hour (AID 1224879); note: nearly all actives have a fitted effect of over 40% in size
# Outline: (§1)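 HepG2 cells were seeded together with the CellTox Green dye at 600 cells/well, left 5 h at 37 C/5% CO2, then given compounds in DMSO. Fluorescence from dye bound to dead-cell DNA was read repeatedly over 40 h of treatment at 37 C.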
# [4] = A CellTox Green Cytotoxicity Assay to monitor cytotoxicity in HepG2 cells - 16 hour (AID 1224876); note: nearly all actives have a fitted effect of over 45% in size
# Outline: as §1
# [5] = A CellTox Green Cytotoxicity Assay to monitor cytotoxicity in HepG2 cells - 24 hour (AID 1224878); note: nearly all actives have a fitted effect of over 45% in size
# Outline: as §1
# [6] = qHTS RealTime-Glo MT Cell Viability Assay in HepG2 cells - 32 hour (AID 1224877); note: nearly all actives have a fitted effect of over 55% in size
# Outline: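 Real-time, nonlytic viability: 600 HepG2 cells/well mixed with NanoLuc enzyme plus prosubstrate; 5 h settle, compound (DMSO) added by pintool; luminescence monitored over 40 h at 37 C.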
# [7] = A CellTox Green Cytotoxicity Assay to monitor cytotoxicity in HEK293 cells - 24 hour (AID 1224875); note: nearly all actives have a fitted effect of over 45% in size
# Outline: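 HEK293 cells premixed with CellTox Green dye were seeded at 600 cells/well and left 5 h at 37 C/5% CO2 before pin transfer of 23 nL compound in DMSO. Fluorescence from dye bound to dead-cell DNA was read during 40 h treatment.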
# [8] = qHTS RealTime-Glo MT Cell Viability Assay in HepG2 cells - 8 hour (AID 1224873); note: nearly all actives have a fitted effect of over 55% in size
# Outline: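 HepG2 cells mixed with RealTime-Glo MT reagents (NanoLuc plus cell-permeant prosubstrate) were seeded at 600 cells/well, incubated 5 h at 37 C/5% CO2, then pinned with compounds in DMSO; nonlytic luminescence tracked viability during 40 h treatment.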
# % is set by controls: 0 for no effect and ±100 for the full control effect; potency is the fitted concentration of half-maximal effect; tags give direction and shape of the fitted curve.
smiles,measurement,setting,value
O=C(O)c1c(O)c(-c2ccccc2)nc2ccccc12,Potency,[1],inactive
same,max response,[2],inactive: 0.412%
same,Potency,[3],inactive
CNC(=S)NC,Potency,[1],inactive
same,Potency,[2],"inconclusive [cytotoxic, partial curve, poor fit]"
same,Potency,[3],active: 54.9 µM
C=C(C)C(=O)O[C@H]1C[C@@H]2CC[C@@]1(C)C2(C)C,Potency,[1],active: 15.4 µM and inactive
same,Potency,[4],inactive
CC[C@H]1CC[C@H](NCc2cc3c(cc2OC)[C@H]2C[C@H]2C(=O)N3C)[C@H](c2ccccc2)N1,Potency,[1],"inconclusive [cytotoxic, partial curve]"
same,Potency,[2],active: 21.9 µM
same,Potency,[5],"inconclusive [activator, partial curve, poor fit]"
same,Potency,[3],"inconclusive [activator, single point]"
CCNC(=O)N1CCN(CCCC(c2ccc(F)cc2)c2ccc(F)cc2)CC1,Potency,[1],active: 16.9 µM
same,Potency,[5],"inconclusive [activator, single point]"
Clc1cccc(C(c2ccc3nc[nH]c3c2)n2ccnc2)c1 (configuration not stated),Potency,[1],"inconclusive [cytotoxic, full curve]"
same,Potency,[6],inactive
CSc1ccc(Oc2ccc(S(N)(=O)=O)cc2CN(C)C)cc1C,Potency,[1],"inconclusive [cytotoxic, partial curve]"
same,Potency,[4],"inconclusive [activator, partial curve, poor fit]"
same,Potency,[5],"inconclusive [activator, single point]"
same,Potency,[3],"inconclusive [activator, single point]"
NS(=O)(=O)c1cc(-c2nn[nH]n2)c(NCc2cccs2)cc1Cl,Potency,[1],inactive
same,Potency,[7],inactive
CC(=O)Oc1cc(C(C)C)c(OCCN(C)C)cc1C,Potency,[1],"inconclusive [cytotoxic, partial curve]"
same,Potency,[2],"inconclusive [cytotoxic, single point]"
same,Potency,[5],inactive
CCN(CCCCOC(=O)c1ccc(OC)c(OC)c1)C(C)Cc1ccc(OC)cc1 (configuration not stated),Potency,[1],"inconclusive [cytotoxic, partial curve]"
same,Potency,[2],"inconclusive [cytotoxic, partial curve]"
same,Potency,[5],"inconclusive [activator, partial curve, poor fit]"
same,Potency,[3],"inconclusive [activator, single point]"
CC(CCO)CCc1ccccc1 (configuration not stated),Potency,[1],inactive
same,Potency,[4],inactive
O=C(Nc1ccc([N+](=O)[O-])cc1)Nc1ccc([N+](=O)[O-])cc1 (tested in a mixture with another compound),Potency,[1],"inconclusive [cytotoxic, full curve]"
same,Potency,[2],active: 4.77 µM
same,Potency,[5],"inconclusive [activator, single point]"
NC(=O)Cn1c(=O)cc(CCN2CCN(c3nccc4sccc34)CC2)c2ccc(F)cc21,Potency,[1],active: 49 µM
same,Potency,[6],"inconclusive [cytotoxic, partial curve]"
same,Potency,[3],inactive
CCc1c2c(nc3ccc(OC(=O)N4CCC(N5CCCCC5)CC4)cc13)-c1cc3c(c(=O)n1C2)COC(=O)[C@]3(O)CC,Potency,[1],"inconclusive [cytotoxic, full curve]"
same,Potency,[4],inactive
same,Potency,[3],"inconclusive [activator, single point]"
CC(=O)c1ccc2c(c1)N(CCCN1CCC(CCO)CC1)c1ccccc1S2,Potency,[1],"inconclusive [cytotoxic, partial curve]"
same,Potency,[4],active: 21.3 µM
same,Potency,[5],active: 23.9 µM
O=S(=O)(c1ccccc1)c1ccc(Cl)cc1,Potency,[1],inactive
same,Potency,[6],inactive
CCOC(=O)C1=NN(c2ccc(Cl)cc2Cl)C(C)(C(=O)OCC)C1 (configuration not stated),Potency,[1],"inconclusive [cytotoxic, partial curve, poor fit]"
same,Potency,[2],"inconclusive [cytotoxic, partial curve]"
same,Potency,[3],inactive
O=C1CCCCCCCCCCC(=O)OCCO1,Potency,[1],"inconclusive [cytotoxic, partial curve, poor fit]"
same,Potency,[7],"inconclusive [activator, partial curve, poor fit]"
C[C@]12CCC(=O)C=C1CC[C@H]1[C@@H]3CC[C@](O)(C(=O)CO)[C@@]3(C)C[C@H](O)[C@@]12F,Potency,[8],inactive
same,Potency,[7],inactive
same,Potency,[5],inactive
CCOC(=O)Cn1c(=O)sc2cccc(Cl)c21,Potency,[8],"inconclusive [falling, partial curve]"
same,Potency,[5],inactive
CCCCCCCCC/C=C/CC1CC(=O)OC1=O (configuration not stated),Potency,[8],"inconclusive [falling, partial curve, poor fit]"
same,max response,[2],inactive: -19.7% and inactive: -2.36%
CN(C)CCCN,Potency,[1],inactive
same,Potency,[5],inactive
CCOC(=O)CC(=O)OCC,Potency,[8],inactive
Cc1cccc(O)c1,Potency,[8],inactive
same,max response,[2],inactive: 3.75% and inactive: 3.48%
same,Potency,[3],"inconclusive [activator, partial curve, poor fit]"
CCC1(C)NC(=O)NC1=O (configuration not stated),Potency,[8],inactive
same,max response,[2],inactive: -2.11%
same,Potency,[4],"inconclusive [activator, partial curve, poor fit]"
same,Potency,[5],"inconclusive [activator, single point]"
same,Potency,[3],"inconclusive [activator, single point]"
CCOC(/C=C(\C)CCC=C(C)C)OCC,Potency,[8],inactive
same,Potency,[5],inactive
CC1=CCC(O)(C(C)C)CC1 (configuration not stated),Potency,[8],inactive
COc1cc2nc(N3CCN(C(=O)C4COc5ccccc5O4)CC3)nc(N)c2cc1OC (configuration not stated),Potency,[1],"inconclusive [cytotoxic, partial curve]"
same,Potency,[5],active: 23.9 µM
OC1CCCCC1c1ccccc1 (configuration not stated),Potency,[8],inactive
CC(C)CCC(=O)CCC(C)C,Potency,[1],inactive
same,Potency,[3],inactive
CN(C)[C@@H]1C(=O)C(C(=O)NCN2CCCC2)=C(O)[C@@]2(O)C(=O)C3=C(O)c4c(O)cccc4[C@@](C)(O)C3C[C@@H]12 (some centres not stated),Potency,[1],inactive
same,Potency,[3],inactive
CC(C)(c1ccc(Oc2ccc(N)cc2)cc1)c1ccc(Oc2ccc(N)cc2)cc1,Potency,[1],"inconclusive [cytotoxic, partial curve]"
same,Potency,[5],inactive
C1=COCCC1,Potency,[8],inactive
CC(C)c1ccc2oc3nc(N)c(C(=O)O)cc3c(=O)c2c1,Potency,[8],inactive
